# In ChEMBL document CHEMBL4888484, “Replenishing the malaria drug discovery pipeline: Screening and hit evaluation of the MMV Hit Generation Library 1 (HGL1) against asexual blood stage Plasmodium falciparum ,using a nano luciferase reporter read-out” (2022):
# About 540 (0.36%) of roughly 150,000 compounds showed an effect of 50% or more. The list shows a part of the results.
# System: Plasmodium falciparum
# Experiment: Primary screen in NF54 nanoGlo assay, in single point, at 2uM, 72h; a lower Z score goes with more inhibition
# Type: functional, Erythrocyte
# Conditions: timepoint 72 hour
Structure (SMILES),% Inhibition,Z score
O=S(=O)(N[C@H]1CCOc2ccccc21)N1CCOCC1,2%,-0.23
CC(CC(O)c1ccco1)NC(=O)NCc1cnc(N(C)C)n1C (stereo unspecified),-8%,1.02
COCC1(C(=O)Nc2ccn3ccnc3c2)CCC1,-18%,3.82
CC(C)N1CC[C@H](N2CCN(c3cccc(C(F)(F)F)c3)CC2)[C@H](CCC(=O)N2CCCCCC2)C1,0%,-0.03
Cc1c(Cl)cccc1S(=O)(=O)N1CC[C@H](Oc2ncc(Cl)cn2)C1,2%,-0.3
O=C(O)COc1cccc(CNC(=O)[C@@H]2CCCc3sccc32)c1,-15%,1.84
COc1ccc2c(c1)[C@@H](n1cc(-c3nccn3C)nn1)CC(C)(C)O2,-8%,1.38
Cc1ccc2c(c1)CC[C@@H](C(=O)Nc1ccnn1C1CCC1)O2,2%,-0.25
CCc1nc2nn3c(=O)c(C(C)(C)C)n[nH]c3c2c(=O)[nH]1,-27%,3.16
Cc1cccc(NC(=O)CN2CCC(COCc3ccccc3)CC2)c1C,-14%,1.56
O=C(Nc1cc2ccccc2cc1NC(=O)c1ccc2c(c1)OCCO2)c1ccc2c(c1)OCCO2,2%,-0.29
N#Cc1oc2ccccc2c1NS(=O)(=O)c1ccccc1,7%,-1.08
Cc1nc(C(C)C)sc1C(=O)N(C)Cc1ccc2c(c1)OCO2,8%,-1.56
Cc1ccc2[nH]c(=O)cc(C(=O)N3CCC(n4cc(C(C)(C)C)nn4)CC3)c2c1,-11%,2.07
O=C(Cn1cnc2ccccc21)NCc1cncc(-c2ccsc2)c1,-8%,1.21
COc1cc(F)c(CN2CCC[C@@H]2CN2CCCC2)cc1OC,18%,-2.33
O=C(O)[C@H]1CCCN(c2nc(-c3ccsc3)nc3ccccc23)C1,-12%,2.15
COCCO[C@H]1CCN(c2ccnc(C#N)c2)C1,-7%,0.97
O=C(c1cnc(COc2ccc(F)cc2)nc1O)N1CCOCC1,-1%,0.22
CS(=O)(=O)N1CCO[C@@H](CNC(=O)c2cnn(Cc3ccccc3)c2)C1,-7%,1.3
CC(=O)Nc1c(S(=O)(=O)c2ccc(C)cc2)c(C)c(C)n1CC(C)C,-4%,0.55

Structure (SMILES),% Inhibition,Z score
CC(=O)N1CCc2cc(-c3ccc(C(=O)NCC[C@H](C)N4CCCC4)cc3)ccc21,42%,-4.76
CC1=NS(=O)(=O)N(C)C=C1C(=O)OCCOc1ccccc1,-6%,1.11
CC(C)(C)Oc1ccccc1NCc1cnc(N2CCOCC2)nc1,-19%,2.73
FC(F)c1cc(NCCc2cc[nH]n2)n2ncnc2n1,-1%,0.19
CC[C@H](C)[C@@H]1NC(=O)N(C2CC(C)(c3ccccc3)C2)C1=O (stereo partly specified),-17%,2.64
COc1cccc(CNC(=O)[C@@H](C)C2CCN(C(=O)c3cc4ccccc4[nH]3)CC2)c1,0%,0.09
CC(C)CCN1C[C@]23C=C[C@H](O2)C(C(=O)N2CCCN(C)CC2)C3C1=O (stereo partly specified),-3%,0.57
CCOc1ccc(NC(=O)c2c(NCc3sccc3C)sc3c2CCCCC3)cc1,-4%,0.71
O=S(=O)(Nc1ccc(Br)cn1)c1cccnc1,8%,-0.89
Cc1cc(NC(=O)NCCN2CCO[C@@H](C)C2)cn2ccnc12,-16%,2.08
C[C@H](NC(=O)NC1CCOCC12CCCC2)c1cncc(F)c1 (stereo partly specified),-11%,2.15
CCc1c(C)nn(CC(=O)N2C[C@H](C3CC3)[C@@H](N(C)C)C2)c1C,-11%,1.44
COc1cccc(C)c1C(=O)N[C@@H]1COCC[C@@H]1Oc1ccccc1,-7%,1.29
CNc1nc([C@H]2CCOC2)cc(N2CCN(c3ccccc3F)CC2)n1,-9%,1.68
O=C1NC2(CCN(Cc3ccccc3C(F)(F)F)CC2)Nc2cccc(Cl)c21,-12%,1.52
CCN(Cc1ccc(Cn2cccn2)cc1)C[C@H](O)c1cccc(O)c1,-5%,0.75
CCCNC(=O)c1ccc(NC(=O)c2nnc(C)s2)cc1,-21%,2.45
Cc1cc(C(=O)Nc2nnc(-c3ccc(F)cc3F)o2)c(C)o1,-8%,1.42
O=C(Nc1ccon1)c1ccc([C@@H]2CCCN2)s1,-6%,1.01
CC1(C)c2[nH]c3ccccc3c2C[C@H]2C(=O)N(CCN3CCOCC3)CC(=O)N21,2%,-0.39
O=S1(=O)CCN(c2nc3ccccc3o2)CC1,5%,-0.41

Structure (SMILES),% Inhibition,Z score
CN(c1ccn(C)n1)S(=O)(=O)CCCS(=O)(=O)N1CCCC1,-3%,0.33
O=C1CC[C@@H]2CN(c3ncnc4[nH]cnc34)CC[C@@H]2N1CCc1ccccc1,-5%,1.08
O=C(N[C@H]1CCOC[C@@H]1OCc1cscn1)c1cn[nH]c1,-5%,0.79
CCc1ccc(CN2CC[C@H]3CN(C(C)=O)C[C@@]3(CO)C2)o1,1%,-0.22
CC(C)Cc1nc(C#N)c(NCCc2ccccc2)o1,-20%,2.82
COc1ccc2cc(C(=O)N3CCN(c4ccccn4)CC3)ccc2c1,-2%,0.34
CCc1nc(CN2C(=O)COc3cc(S(=O)(=O)NC4CCC(C)CC4)c(Cl)cc32)no1 (stereo unspecified),-10%,1.14
Cn1cnnc1CCC(=O)N1CCN(c2ccc(Cl)c(Cl)c2)CC1,-10%,1.99
CCc1nc(CNC(=O)NCc2cc(Br)cnc2OC)cs1,-5%,0.51
CS(=O)(=O)N1CCO[C@@H](Cc2cccc3ccccc23)C1,-9%,1.69
O=C(c1ccc(C(=O)N2CCCc3ccccc32)s1)N1CCCc2ccccc21,21%,-2.34
Cc1cc(OCc2ccon2)c2ccccc2n1,-6%,0.56
COc1ccc2c(c1)C1(CC1)CN(C(=O)NC[C@@]1(C)CCC(=O)N1)C2,12%,-1.21
O=S(=O)(c1ccccc1)N1CC[C@@H]2CN(Cc3ccccc3)[C@@H]2C1,-11%,1.48
COc1ccccc1CNC(=O)C1=NN(c2ccc(C)cc2)c2ncccc2S1(=O)=O,3%,-0.37
Cc1noc(C)c1S(=O)(=O)Nc1cccc2c1CCCC2,-14%,1.61
COc1ccc(-c2cnn([C@@H](C)C(=O)Nc3c(C)cccc3C)c(=O)n2)cc1,-3%,0.34
Cc1c(Cl)cccc1S(=O)(=O)N1CC(N2CCc3sccc3C2)C1,-16%,2.55
CC(=O)c1cn(Cc2ccco2)c(=O)[nH]c1=O,-9%,1.57
Cc1nn(C)c(C)c1CCC(=O)N(C)[C@@H](C)c1ccco1,-8%,0.99
NCCn1cc(C(=O)NCc2cccnc2Oc2ccc(F)cc2F)nn1,-10%,1.58

Structure (SMILES),% Inhibition,Z score
CCC(=O)Nc1ccc2c(c1)cc(C(=O)Nc1ccccc1)n2Cc1ccccc1,-5%,0.61
Cc1[nH]c(-c2nnc(C3CCC3)o2)c(C)c1S(=O)(=O)N1CCCCCC1,-11%,1.41
COCCn1cnnc1CNC(=O)c1cnc(C(C)C)nc1,6%,-0.78
O=C1OCCN1Cc1cc(F)ccc1C(F)(F)F,2%,-0.25
CC(C)c1ccc(S(=O)(=O)Nc2cc(C(=O)O)ccc2N2CCC(N3CCCCC3)CC2)cc1,-16%,1.6
Cc1cc(C)cc(NC(=O)CCc2ccc3[nH]c(C(C)C)nc3c2)c1,4%,-0.57
Cc1ccccc1[C@H]1CCN(CCNc2nccc(-c3c(C)nn(C)c3C)n2)C1,-2%,0.23
CCc1cc(C(=O)NCc2cccnc2)nc2cc(-c3ccccn3)nn12,1%,-0.11
CCN(CC(=O)Nc1ccc(C(C)C)cc1)[C@@H](C)CS(C)(=O)=O,0%,0.06
COc1nc(C)cc(N(C)Cc2ncccn2)n1,-7%,0.86
Cc1ccc(CNC(=O)Cn2cnc3c(-c4ccncc4)nsc3c2=O)cc1,-9%,1.11
CC(C)(CN1CCOCC1)CN1CCc2[nH]cnc2[C@H]1c1cccc(C#N)c1,-1%,0.19
CC(NC(=O)N1CCCC(OC2CCC2)C1)c1ncc(Br)cn1 (stereo unspecified),-9%,1.34
CC1=NO[C@@](C)(CNC(=O)c2ccccc2Cl)C1,-9%,1.26
O=c1[nH]ccnc1N[C@H]1CCN(c2cccc(OC(F)(F)F)c2)C1,1%,-0.1
CCOC(=O)C1(Cc2ccc(Cl)cc2)CCN([C@@H](C)Cc2ccc(O)c(OC)c2)CC1,-8%,0.77
Cc1ccc(S(=O)(=O)n2cc(-c3cnn(S(=O)(=O)c4ccc(C)cc4)c3)cn2)cc1,-11%,2
COCC(=O)NC1CN(S(=O)(=O)c2ccc(C)o2)C1,-5%,0.54
COc1cc(OC)cc(C(=O)N2CCn3nccc3C2)c1,-15%,1.73
CCC(C)Oc1cccc(NC(c2cccnc2)c2ncc[nH]2)c1 (stereo unspecified),20%,-2.73
